# From the supplement of paper PMC8728848
# The list shows a part of the results.
# B1: XL-35 (Xenopus laevis) (protein)
# chain: MLVHILLLLVTGGLSQSCDPVVIVASKNMVKQLDCDKFRNCKEIKDSNEEAQDGIYTLTSPDGISYQTFCDMTTNGGGWTLVASVHENNMAGKCTIGDRWSSQQGNRADYPEGDGNWANYNTFGSAGGATSDDYKNPGYYDIEAYNLGVWHVPNKTPLSVWRNSSLQRYRTTDGILFKHGGNLFSLYRIYPVKYGIGSCSKDSGPTVPVVYDLGSANLTASFYSPGFRSQFTPGYIQFRPINTEKAALALCPGMKMESCNVEHVCIGGGGYFPEADPRQCGDFAAYDFNGYGTKKFNSAGIEITEAAVLLFYL
# Experiments:
# Assay in all cases: glycan array binding signal (z-score within array); higher = stronger binding
# Details in all cases: glycan notation: IUPAC condensed, linker removed
# [1] = target: Gal3S(b1-4)[Fuc(a1-3)]GlcNAc
# Summary of the method: (§1)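 Glycan array data came from 3228 arrays in the Consortium for Functional Glycomics database, and only arrays with an available protein sequence were kept. Glycan names were put into IUPAC-condensed notation, and columns mapping to the same glycan were averaged. The binding signal is a within-array Z-score, averaged across arrays of one protein sequence run at different concentrations or buffers and across linkers. A negative Z-score can be read as non-binding.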
# [2] = target: Gal3S(b1-4)[Fuc(a1-3)]GlcNAc6S
# Summary of the method: as §1
# [3] = target: Gal3S4S(b1-4)GlcNAc
# Summary of the method: as §1
# [4] = target: Gal3S6S(b1-4)GlcNAc
# Summary of the method: as §1
# [5] = target: Gal3S6S(b1-4)GlcNAc6S
# Summary of the method: as §1
# [6] = target: Gal4S(b1-4)GlcNAc
# Summary of the method: as §1
# [7] = target: Gal4S6S(b1-4)GlcNAc
# Summary of the method: as §1
# [8] = target: Gal6P(b1-4)GlcNAc
# Summary of the method: as §1
# [9] = target: Gal6S(b1-3)GlcNAc
# Summary of the method: as §1
# [10] = target: Gal6S(b1-3)GlcNAc6S
# Summary of the method: as §1
# [11] = target: Gal6S(b1-4)Glc
# Summary of the method: as §1
# [12] = target: Gal6S(b1-4)Glc6S
# Summary of the method: as §1
# [13] = target: Gal6S(b1-4)GlcNAc
# Summary of the method: as §1
# [14] = target: Gal6S(b1-4)GlcNAc6S
# Summary of the method: as §1
# [15] = target: GalNAc(a1-3)Gal
# Summary of the method: as §1
# [16] = target: GalNAc(a1-3)GalNAc
# Summary of the method: as §1
# [17] = target: GalNAc(a1-3)GalNAc(b1-3)Gal(a1-4)Gal(b1-4)Glc
# Summary of the method: as §1
# [18] = target: GalNAc(a1-3)GalNAc(b1-3)Gal(a1-4)Gal(b1-4)GlcNAc
# Summary of the method: as §1
# [19] = target: GalNAc(b1-3)Gal
# Summary of the method: as §1
# [20] = target: GalNAc(b1-3)Gal(a1-4)Gal(b1-4)GlcNAc
# Summary of the method: as §1
# [21] = target: GalNAc(b1-3)Gal(a1-4)Gal(b1-4)GlcNAc(b1-3)Gal(b1-4)Glc
# Summary of the method: as §1
# [22] = target: GalNAc(b1-3)Gal(a1-6)Gal(b1-4)Glc
# Summary of the method: as §1
# [23] = target: GalNAc(b1-3)GalNAc
# Summary of the method: as §1
# [24] = target: GalNAc(b1-3)GlcNAc
# Summary of the method: as §1
# [25] = target: GalNAc(b1-4)Gal(b1-4)Glc
# Summary of the method: as §1
# [26] = target: GalNAc(b1-4)GlcNAc
# Summary of the method: as §1
# [27] = target: GalNAc(b1-4)GlcNAc(b1-2)Man
# Summary of the method: as §1
# [28] = target: GalNAc(b1-4)GlcNAc(b1-2)Man(a1-3)[GalNAc(b1-4)GlcNAc(b1-2)Man(a1-6)]Man(b1-4)GlcNAc(b1-4)GlcNAc
# Summary of the method: as §1
# [29] = target: GalNAc(b1-4)GlcNAc(b1-3)GalNAc(b1-4)GlcNAc
# Summary of the method: as §1
# [30] = target: GalNAc(b1-4)GlcNAc6S
# Summary of the method: as §1
# [31] = target: GalNAc(b1-6)GalNAc
# Summary of the method: as §1
# [32] = target: GalNAc3S(b1-4)GlcNAc
# Summary of the method: as §1
# [33] = target: GalNAc3S(b1-4)GlcNAc3S
# Summary of the method: as §1
# [34] = target: GalNAc3S(b1-4)[Fuc(a1-3)]GlcNAc
# Summary of the method: as §1
# [35] = target: GalNAc4S6S(b1-4)GlcNAc
# Summary of the method: as §1
# [36] = target: GalNAc6S(b1-4)GlcNAc
# Summary of the method: as §1
# [37] = target: Glc(a1-4)Glc
# Summary of the method: as §1
binder,measurement,setting,value
B1,glycan array binding signal (z-score),[1],0.601
same,glycan array binding signal (z-score),[2],0.007
same,glycan array binding signal (z-score),[3],-0.29
same,glycan array binding signal (z-score),[4],0.114
same,glycan array binding signal (z-score),[5],0.043
same,glycan array binding signal (z-score),[6],-0.18
same,glycan array binding signal (z-score),[7],-0.282
same,glycan array binding signal (z-score),[8],-0.519
same,glycan array binding signal (z-score),[9],0.247
same,glycan array binding signal (z-score),[10],-0.125
same,glycan array binding signal (z-score),[11],0.179
same,glycan array binding signal (z-score),[12],-0.025
same,glycan array binding signal (z-score),[13],0.043
same,glycan array binding signal (z-score),[14],0.18
same,glycan array binding signal (z-score),[15],0.045
same,glycan array binding signal (z-score),[16],-0.094
same,glycan array binding signal (z-score),[17],-0.291
same,glycan array binding signal (z-score),[18],-0.369
same,glycan array binding signal (z-score),[19],-0.169
same,glycan array binding signal (z-score),[20],0.014
same,glycan array binding signal (z-score),[21],-0.027
same,glycan array binding signal (z-score),[22],-0.303
same,glycan array binding signal (z-score),[23],-0.054
same,glycan array binding signal (z-score),[24],0.051
same,glycan array binding signal (z-score),[25],0.155
same,glycan array binding signal (z-score),[26],0.518
same,glycan array binding signal (z-score),[27],0.164
same,glycan array binding signal (z-score),[28],0.116
same,glycan array binding signal (z-score),[29],-0.391
same,glycan array binding signal (z-score),[30],-0.325
same,glycan array binding signal (z-score),[31],-0.413
same,glycan array binding signal (z-score),[32],0.077
same,glycan array binding signal (z-score),[33],0.009
same,glycan array binding signal (z-score),[34],-0.078
same,glycan array binding signal (z-score),[35],0.078
same,glycan array binding signal (z-score),[36],-0.092
same,glycan array binding signal (z-score),[37],-0.067
